From the supplement of paper PMC12217912
The other results are listed elsewhere or left out. The full chains were built here from the parent and the listed change. Values near 0.05 are background.

B1: TEV protease; numbered along this chain (parent)
chain: MGESLFKGPRDYNPISSSICHLTNESDGHTTSLYGIGFGPFIITNKHLFRRNNGTLVVQSLHGVFKVKDTTTLQQHLVDGRDMIIIRMPKDFPPFPQKLKFREPQREERICLVTTNFQTKSMSSMVSDTSCTFPSGDGIFWKHWIQTKDGQCGSPLVSTRDGFIVGIHSASNFTNTNNYFTSVPKNFMELLTNQEAQQWVSGWRLNADSVLWGGHKVFMVKPEEPFQPVKEATQL

Variants of: B1
Assay: raw area under fraction-flipped curve 0-4 h after induction (AUC4h, not background-subtracted), DNA-recorder readout of cleavage of the substrate (dimensionless); higher = more cleavage of the substrate by the protease variant
Conditions: temperature: 34 °C; time window: 0-4 h after rhamnose induction
Experimental: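 In vivo DNA recorder in E. coli TOP10(DE3) ΔrhaA at 34 °C. Each TEVp single-site mutant (parent TEVp 0) is paired with a single-site variant of the 7-mer TEVs (canonical ENLYFQ|S). The substrate sits between flexible linkers in a Bxb1-sfGFP-TEVs-SsrA fusion, so cleavage stabilises Bxb1 and speeds flipping of a recombination array, read by NGS. The value is the raw area under the fraction-flipped curve over 0-4 h after rhamnose induction (AUC4h), with ≥20 reads per time point. It is not background-subtracted; inactive controls average about 0.047.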
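Further: Bxb1 expression induced with 0.2% (w/v) L-rhamnose at OD600 near 0.5, cultures sampled hourly, flipped fraction per protease–substrate barcode pair counted by paired-end Illumina sequencing.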

Variant | area with substrate ENLYFCS | area with substrate ENLYFES | area with substrate ENLYFHS | area with substrate ENLYFIS | area with substrate ENLYFMS | area with substrate ENLYFPS | area with substrate ENLYFSS | area with substrate ENLYFWS | area with substrate ENLYFKS | area with substrate ENLYFLS
P228Y | 0.06 | 0.0918 | 0.0393 | 0.0477 | 0.061 | 0.0378 | 0.0695 | 0.0443 |  | 
T233W | 0.0674 | 0.0653 |  | 0.065 | 0.0567 | 0.0649 |  |  | 0.0549 | 0.0554
G2I |  | 0.0682 | 0.0524 | 0.0533 |  |  | 0.0491 | 0.0428 |  | 
I15G |  | 0.0652 | 0.0664 | 0.0503 | 0.054 | 0.0707 |  | 0.051 | 0.0341 | 
N53L |  |  |  | 0.0439 |  | 0.0648 |  | 0.0541 |  | 
S60W |  | 0.0571 | 0.0486 | 0.0423 | 0.0449 | 0.0597 |  |  | 0.0657 | 
K66Q |  |  |  | 0.0645 | 0.0693 |  |  |  |  | 
I84V |  | 0.0639 |  | 0.0512 | 0.0577 | 0.0612 | 0.0695 |  | 0.0577 | 
D91T |  |  |  | 0.0466 | 0.0578 | 0.0883 |  | 0.0658 |  | 
F92L |  | 0.0887 | 0.0521 | 0.0838 |  | 0.0708 | 0.049 |  | 0.0724 | 0.0525
P93D |  | 0.0626 | 0.0547 | 0.0566 | 0.0579 |  | 0.0458 | 0.0421 |  | 
P94V |  | 0.0943 |  | 0.0449 | 0.0708 | 0.0446 | 0.0908 | 0.047 |  | 
F95L |  |  | 0.0827 | 0.0514 |  |  |  |  | 0.068 | 
Q97L |  |  |  | 0.0508 | 0.0525 | 0.0687 |  |  |  | 
V113Y |  | 0.0522 | 0.0145 | 0.0527 | 0.0661 | 0.0606 |  |  | 0.0421 | 0.115
N116F |  | 0.0523 |  | 0.0618 | 0.0574 | 0.0448 | 0.0636 | 0.0631 | 0.0817 | 
T119Q |  |  |  | 0.045 |  |  |  |  |  | 
K148L |  | 0.0438 |  | 0.0394 | 0.0741 |  | 0.0643 | 0.0557 |  | 

Same assay, conditions: temperature: 34 °C; time window: 0-4 h after rhamnose induction

Variant | area with substrate ENLYFNS | area with substrate ENLYFTS | area with substrate ENLYFDS | area with substrate ENLYFFS | area with substrate ENLYFRS | area with substrate ENLYFVS | area with substrate ENLYFYS | area with substrate ENLYFGS
T233W | 0.0597 | 0.0626 |  |  |  |  |  | 
G2I | 0.0607 | 0.0573 | 0.0479 | 0.0703 |  |  |  | 
I15G | 0.0642 | 0.0505 | 0.043 |  | 0.0692 | 0.0528 | 0.0371 | 
R51H |  |  | 0.0533 |  |  |  |  | 
N53L | 0.067 | 0.0784 | 0.0555 |  | 0.0529 | 0.0734 |  | 
S60W | 0.0623 | 0.0568 | 0.0643 | 0.0669 |  | 0.0396 | 0.0591 | 
K66Q |  | 0.0559 | 0.0501 | 0.0691 |  |  |  | 0.0599
I84V |  | 0.0532 | 0.0661 | 0.0641 | 0.0574 | 0.0616 |  | 
D91T |  | 0.0547 | 0.0915 | 0.0676 |  |  |  | 
F92L | 0.0587 | 0.065 | 0.0656 | 0.066 |  |  |  | 0.0512
P93D |  |  | 0.0861 | 0.0924 | 0.0572 |  |  | 
P94V | 0.0796 | 0.0125 | 0.0582 | 0.0748 |  |  | 0.0587 | 0.0619
F95L |  |  | 0.046 |  |  |  |  | 0.0821
Q97L | 0.0376 |  | 0.0568 |  |  |  |  | 
V113Y |  | 0.0795 | 0.0447 | 0.0076 |  |  | 0.0549 | 
N116F | 0.0697 | 0.0793 | 0.0161 |  | 0.0637 | 0.0573 |  | 
T119Q | 0.0941 |  | 0.0479 |  |  |  | 0.0403 | 
K148L |  | 0.0518 | 0.0639 | 0.0549 |  |  | 0.0568 | 0.0489
